The whole screen tested about 48,000 compounds, of which about 1,200 (2.5%) were called active. Roughly 2% stayed inconclusive and do not appear here.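 How the source made its calls: active means activation of at least 60% and not above a set upper limit (about 1 call in 100 departs from these limits); inconclusive means activation of 40% to 60%, or above that upper limit; inactive means activation under 40%.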 This is one part of the list.

UniProt O75388, sequence (O75388 whole entry, looked up): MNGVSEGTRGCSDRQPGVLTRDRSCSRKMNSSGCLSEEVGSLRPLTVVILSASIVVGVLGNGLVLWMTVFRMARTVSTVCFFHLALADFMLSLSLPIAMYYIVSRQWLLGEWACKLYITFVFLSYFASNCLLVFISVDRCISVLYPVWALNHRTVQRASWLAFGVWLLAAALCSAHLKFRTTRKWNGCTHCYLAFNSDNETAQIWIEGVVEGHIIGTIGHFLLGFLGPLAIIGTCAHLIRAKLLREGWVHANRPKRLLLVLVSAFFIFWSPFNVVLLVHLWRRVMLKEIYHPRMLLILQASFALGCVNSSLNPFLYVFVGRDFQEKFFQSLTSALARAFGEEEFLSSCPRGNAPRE

This assay concerns the target Probable G-protein coupled receptor 32 (Homo sapiens) (UniProt O75388). Description: qHTS for Agonists of Human Resolvin D1 Receptor DRV1. Further: 0% is about no effect. The conditions noted are these: CHO-K1 GPR32 beta-arrestin PathHunter luminescence, 90 min; at 76.9 µM; hits give high values; zero percent set by DMSO-only wells. An outline of the steps:
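Beta-arrestin recruitment read-out: luminescence from complemented beta-Gal in CHO-K1 GPR32 PathHunter cells, measured 1 h after detection reagent at ambient temperature following 90 min compound exposure at 37 °C; DMSO served as basal (EC0) control.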
Consider `CCOC(=O)C1CCCN(C(=O)c2ccc(C)c(NC(=O)c3nsc4ccccc34)c2)C1` (centres undefined), for which the activation is inactive: -10.3%.

As for `COc1cccc(NC(=O)CSc2nnc3[nH]c(=O)cc(-c4ccccc4)n23)c1`, the activation was inactive: -7.07%.

As to `C1CCC(C(CC2CCCCN2)C2CCCCC2)CC1` (centres undefined), the activation was inactive: 38.3%.

Consider `CCCc1nc2nc(C)c(NS(=O)(=O)c3ccc(C)c(C)c3)c(=O)n2[nH]1`, for which the activation was inactive: 5.6%.

On to `CC(=O)c1ccc(NC(=O)C2CCCN(S(=O)(=O)c3ccc(Br)s3)C2)cc1` (centres undefined), for which the activation was inactive: 2.64%.

`CCOC(=O)C1CCN(c2nc3c(S(=O)(=O)c4ccc(CC)cc4)nnn3c3ccc(Cl)cc23)CC1`: the activation was inactive: -13.4%.

As to `Cc1cccn2c(=O)c3cc(C(=O)NC(C)(C)C)n(C)c3nc12`, the activation is inactive: -1.57%.

As to `Cc1cc(Cl)ccc1NC(=O)CS(=O)(=O)c1cccc2nsnc12`, the activation was inactive: -7.39%.

Consider `CCOC(=O)c1ccc(NC(=O)C2CCN(S(=O)(=O)Cc3ccccc3)CC2)cc1`, for which the activation was inactive: -19.6%.

With `CCOc1ccc(NC(=O)c2sc3nc4n(c(=O)c3c2C)CCCC4)cc1`, the activation was inactive: 12.3%.

`Cc1cc(C)cc(NC(=O)CSc2oc(-c3cccs3)nc2S(=O)(=O)c2ccc(Br)cc2)c1`: the activation was inactive: -0.312%.

As for `CCOc1ccc(N(CC)C(=O)c2cc3c(s2)-c2ccc(Cl)cc2SC3)cc1`, the activation is inactive: -13%.

For the compound `Cc1cccc(NC(=O)c2ccc(F)c(S(=O)(=O)NCc3ccc4c(c3)OCO4)c2)c1`, the activation is inactive: -13.6%.

In the case of `Cc1ccc(C(=O)NCCSc2c[nH]c3ccccc23)cc1C`, the activation is inactive: -10.5%.

As for `Cc1ccn2c(Nc3ccc4c(c3)OCO4)c(-c3ccc(C)o3)nc2c1`, the activation is inactive: -14.3%.

Turning to `CCc1ccc(NCc2cc3ccc(OC)cc3n(CC(=O)Nc3ccccc3OC)c2=O)cc1`, the activation is inactive: -7.47%.

As to `COC(=O)c1sc2cccc(F)c2c1S(=O)(=O)NC(C)c1ccccc1` (centres undefined), the activation is inactive: -20.1%.

Turning to `CC(=O)NC(=O)c1ccccc1O`, the activation is inactive: -8.43%.

Take `COc1ccc(NC(=O)C2(S(=O)(=O)c3ccc(C)cc3)CC2)c(OC)c1`: the activation is inactive: -18.9%.

With `CCOC(=O)C1CCN(C(=O)c2ccc3c(=O)n4nc(Nc5ccccc5)sc4nc3c2)CC1`, the activation was inactive: -13.2%.

For the compound `COc1ccc(-c2c(C)c3ccc(O)c(CN4CCCCC4C)c3oc2=O)cc1OC` (centres undefined), the activation is inactive: -7.74%.

`CCCN(CCC)C(=O)Cn1c(=O)n(-c2ccc(CC)cc2)c(=O)c2c3c(sc21)CCC3`: the activation was inactive: -13.7%.

Turning to `COc1cc(O)ccc1-c1nc2ccc(Br)cn2c1Nc1ccccc1C`, the activation is inactive: -9.4%.

For `CCSc1ncc(Cl)c(C(=O)Nc2ccc(S(=O)(=O)N3CCCCC3CC)cc2)n1` (centres undefined), the activation was inactive: -3.84%.

These data come from PubChem BioAssay AID1346428 (National Center for Advancing Translational Sciences (NCATS), 2018).
